Data as given in paper PMC6736995, “Insights Into Enhanced Complement Activation by Structures of Properdin and Its Complex With the C-Terminal Domain of C3b” (Frontiers in Immunology, 2019).

Assays:
Settings in all cases: both partners purified
C3 convertase C3bBb^dgf‡ = target: T1, C3 convertase C3bBb^dgf‡ (human, UniProt P01024 23-667; P01024 partial chain; P00751 260-764, S699A | D279G | N285D, biotin (EZ-Link Maleimide-PEG2-Biotin) on the free cysteine that is generated after hydrolysis of the reactive thioester); assay: SPR; apparent KD; C3bB^dgf‡ or C3bBb^dgf‡ generated on a C3b coated chip; oligomeric properdin injected 6.1 × 10^-5 to 0.5 μM; 20 mM HEPES pH 7.4, 0.005% Tween-20, 150 mM NaCl, 5 mM MgCl2; 25°C
C3 convertase C3bBb^dgf‡, sequence (P01024 23-667, chain 1 of 3): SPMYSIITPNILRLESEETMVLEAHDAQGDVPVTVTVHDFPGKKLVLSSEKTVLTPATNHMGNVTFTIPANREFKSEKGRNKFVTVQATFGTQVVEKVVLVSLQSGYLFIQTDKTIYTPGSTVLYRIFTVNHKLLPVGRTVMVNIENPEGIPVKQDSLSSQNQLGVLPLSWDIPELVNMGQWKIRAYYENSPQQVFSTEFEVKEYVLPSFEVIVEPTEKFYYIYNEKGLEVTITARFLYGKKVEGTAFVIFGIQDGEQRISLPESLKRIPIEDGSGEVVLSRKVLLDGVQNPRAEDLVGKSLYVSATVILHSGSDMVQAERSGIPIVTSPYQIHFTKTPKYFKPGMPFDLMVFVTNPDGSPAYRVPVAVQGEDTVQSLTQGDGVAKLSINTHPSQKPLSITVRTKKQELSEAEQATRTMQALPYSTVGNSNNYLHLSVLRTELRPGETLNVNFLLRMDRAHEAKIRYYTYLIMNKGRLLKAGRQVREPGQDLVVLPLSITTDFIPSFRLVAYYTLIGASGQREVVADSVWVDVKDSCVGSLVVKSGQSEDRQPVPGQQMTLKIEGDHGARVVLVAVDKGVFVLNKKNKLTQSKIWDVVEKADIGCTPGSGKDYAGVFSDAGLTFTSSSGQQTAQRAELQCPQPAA
C3 convertase C3bBb^dgf‡, sequence (P01024 749-1663, chain 2 of 3): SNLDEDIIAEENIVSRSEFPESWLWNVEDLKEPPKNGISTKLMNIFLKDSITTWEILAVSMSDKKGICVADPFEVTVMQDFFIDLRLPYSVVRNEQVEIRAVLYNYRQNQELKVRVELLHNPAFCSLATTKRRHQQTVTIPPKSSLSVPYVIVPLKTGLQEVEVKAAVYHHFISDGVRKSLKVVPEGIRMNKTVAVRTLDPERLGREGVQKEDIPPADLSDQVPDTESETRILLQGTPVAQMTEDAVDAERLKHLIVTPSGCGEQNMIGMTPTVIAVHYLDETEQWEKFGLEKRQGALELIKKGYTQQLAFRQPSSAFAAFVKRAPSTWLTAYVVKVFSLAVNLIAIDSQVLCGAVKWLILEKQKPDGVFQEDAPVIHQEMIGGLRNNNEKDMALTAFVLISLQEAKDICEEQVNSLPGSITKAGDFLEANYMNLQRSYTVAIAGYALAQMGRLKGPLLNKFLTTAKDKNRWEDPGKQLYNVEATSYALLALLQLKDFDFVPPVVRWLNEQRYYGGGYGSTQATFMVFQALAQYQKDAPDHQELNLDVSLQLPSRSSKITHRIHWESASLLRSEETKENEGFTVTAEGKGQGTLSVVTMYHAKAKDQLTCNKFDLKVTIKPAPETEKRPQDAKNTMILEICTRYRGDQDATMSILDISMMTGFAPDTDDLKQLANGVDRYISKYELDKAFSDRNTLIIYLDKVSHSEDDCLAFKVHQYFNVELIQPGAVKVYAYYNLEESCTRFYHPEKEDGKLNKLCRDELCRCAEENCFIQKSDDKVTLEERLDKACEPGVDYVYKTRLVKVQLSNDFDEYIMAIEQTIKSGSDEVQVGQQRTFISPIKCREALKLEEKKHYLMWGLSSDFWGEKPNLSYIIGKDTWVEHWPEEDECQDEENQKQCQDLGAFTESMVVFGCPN
C3 convertase C3bBb^dgf‡, sequence (P00751 260-764 D279G/N285D/S699A, chain 3 of 3, further chain): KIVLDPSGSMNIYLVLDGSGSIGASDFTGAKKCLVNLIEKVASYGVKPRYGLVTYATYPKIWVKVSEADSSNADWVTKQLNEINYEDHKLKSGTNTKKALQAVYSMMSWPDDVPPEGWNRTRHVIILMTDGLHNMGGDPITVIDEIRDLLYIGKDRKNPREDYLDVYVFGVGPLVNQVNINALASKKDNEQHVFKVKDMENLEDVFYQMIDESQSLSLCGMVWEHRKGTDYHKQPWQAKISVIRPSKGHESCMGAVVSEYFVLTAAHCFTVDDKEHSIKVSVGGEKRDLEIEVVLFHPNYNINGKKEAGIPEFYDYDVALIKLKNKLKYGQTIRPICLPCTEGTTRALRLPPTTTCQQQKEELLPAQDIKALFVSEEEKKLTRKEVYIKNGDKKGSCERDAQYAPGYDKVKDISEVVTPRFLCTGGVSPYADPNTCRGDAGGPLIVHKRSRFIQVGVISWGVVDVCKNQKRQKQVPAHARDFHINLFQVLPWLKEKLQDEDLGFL
T1 construct: complement C3 beta chain, human; C3b alpha' chain, human; In the convertase stability assay (functional rows) the same complex was formed in solution from C3b that was not biotinylated; source: formed on the SPR chip: FB^dgf‡ (100 nM, 5 min) then FD (100 nM, 5 min) over biotinylated C3b, 5 mM MgCl2; copies: + +

[1] = target: T2, C3 pro-convertase C3bB^dgf‡ generated on a C3b coated chip (human, UniProt P01024 23-667; P01024 partial chain; P00751 26-764, S699A | D279G | N285D, biotin (EZ-Link Maleimide-PEG2-Biotin) on the free cysteine that is generated after hydrolysis of the reactive thioester); assay: as above
T2 construct: complement C3 beta chain, human; C3b alpha' chain, human; source: formed on the SPR chip: 100 nM FB^dgf‡ injected for 5 min over biotinylated C3b, 5 mM MgCl2; copies: + +

[2] = target: T3, C3b, biotinylated at the free cysteine of the hydrolysed thioester (human, UniProt P01024 23-667; P01024 partial chain, biotin (EZ-Link Maleimide-PEG2-Biotin) on the free cysteine that is generated after hydrolysis of the reactive thioester); assay: SPR; apparent KD; biotinylated C3b on a SensEye P-Strep chip; oligomeric properdin injected 1.2 × 10^-4 to 1 μM; 20 mM HEPES pH 7.4, 0.005% Tween-20, 150 mM NaCl; 25°C; Salp20 to regenerate
T3 construct: complement C3 beta chain, human; C3b alpha' chain, human; Coupled to a streptavidin chip through the biotin; also called C3b coated chip; source: generated from C3 (purified from human plasma) with FB and FD, biotinylated, purified by SEC

B1: recombinant full-length properdin (mixture of dimers, trimers and tetramers) (natural protein, human)
chain: GSDPVLCFTQYEESSGKCKGLLGGGVSVEDCCLNTAFAYQKRSGGLCQPCRSPRWSLWSTWAPCSVTCSEGSQLRYRRCVGWNGQCSGKVAPGTLEWQLQACEDQQCCPEMGGWSGWGPWEPCSVTCSKGTRTRRRACNHPAPKCGGHCPGQAQESEACDTQQVCPTHGAWATWGPWTPCSASCHGGPHEPKETRSRKCSAPEPSQKPPGKPCPGLAYEQRRCTGLPPCPVAGGWGPWGPVSPCPVTCGLGQTMEQRTCNHPVPQHGGPFCAGDATRTHICNTAVPCPVDGEWDSWGEWSPCIRRNMKSISCQEIPGQQSRGRTCRGRKFDGHRCAGQQQDIRHCYSIQHCPLKGSWSEWSTWGLCMPPCGPNPTRARQRLCTPLLPKYPPTVSMVEGQGEKNVTFWGRPLPRCEELQGQKLVVEEKRPCLHVPACKDPEEEELAAA
notes: N-terminal Gly-Ser cloning scar from the BamHI site; properdin, human, full-length properdin (res. 28-469); C-terminal extension of three alanines from the NotI site; Mixture of dimeric, trimeric and tetrameric properdin by SEC; also called oligomeric properdin; properdin oligomers; source: HEK293-EBNA, purified from supernatant (Ni-Sepharose Excel, SEC Superdex 200), pooled fractions
A Kd (C3 convertase C3bBb^dgf‡) of 4.4 ± 1 nM, a Kd [1] of 4.6 ± 1 nM and a Kd [2] of 22 ± 2 nM were found for B1 in this work.
